In PubChem BioAssay AID1159614 (National Center for Advancing Translational Sciences (NCATS), 2016):
The whole screen tested about 45,000 compounds, of which about 65 (0.1%) were called active. Calls follow the shape of the dose curve; as a rule, active = well fitted activation curve with a large enough effect; inconclusive = small, poorly fitted or top-dose-only effect; inactive = no such curve, though single readings can be large or run the other way. This is one part of the list.

target: Galactocerebrosidase (Homo sapiens) (UniProt P54803); assay: A Novel Cell-Based Assay to Identify Small Molecules for B -Galactocerebrosidase; settings: 145M-Twi-hGALC-G270D cells (Twitcher mouse brain line with human GALC G270D), HMU-beta-Gal fluorescence, 48 h; series mostly up to 57.5 µM; activation: at the top concentration; also: 0% is about no effect; nearly all actives have a fitted effect of over 65% in size
UniProt P54803, sequence (P54803 whole entry, looked up): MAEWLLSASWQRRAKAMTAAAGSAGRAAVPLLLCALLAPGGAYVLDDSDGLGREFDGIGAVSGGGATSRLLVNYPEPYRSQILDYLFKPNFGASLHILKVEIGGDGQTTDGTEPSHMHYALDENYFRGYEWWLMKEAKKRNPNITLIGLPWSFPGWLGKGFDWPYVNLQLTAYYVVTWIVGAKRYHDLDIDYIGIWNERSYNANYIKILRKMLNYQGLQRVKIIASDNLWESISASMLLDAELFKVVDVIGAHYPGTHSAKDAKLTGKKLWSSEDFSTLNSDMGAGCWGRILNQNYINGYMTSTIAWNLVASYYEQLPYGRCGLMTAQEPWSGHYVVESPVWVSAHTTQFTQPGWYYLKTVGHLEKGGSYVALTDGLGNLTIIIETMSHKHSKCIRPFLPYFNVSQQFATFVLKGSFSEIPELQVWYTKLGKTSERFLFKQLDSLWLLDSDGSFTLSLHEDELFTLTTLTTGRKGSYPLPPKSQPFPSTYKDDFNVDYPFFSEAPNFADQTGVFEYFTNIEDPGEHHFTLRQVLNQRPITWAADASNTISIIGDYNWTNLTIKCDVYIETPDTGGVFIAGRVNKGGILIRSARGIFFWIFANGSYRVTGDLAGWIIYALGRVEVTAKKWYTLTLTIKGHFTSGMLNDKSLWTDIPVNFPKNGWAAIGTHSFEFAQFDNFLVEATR
Summary of the method: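 Live 145M-Twi cells (Twitcher mouse brain-derived, GALC-null) stably expressing human GALC-G270D, with a wild-type GALC line, were compound-treated. Residual GALC activity was then read as fluorescence from 0.1 mM final HMU-β-gal at pH 5.2; higher signal means activation.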

activation, inactive:
Cc1cccc(N2CCN(C(=O)c3cccn4c(=O)c5cc(Cl)ccc5nc34)CC2C)c1 (stereo unspecified) -26.6%
O=C(Nc1ccc2oc(-c3ccc(O)c(Br)c3)nc2c1)c1cc2ccccc2o1 -4.29%
CC(=O)Nc1cccc(NC(=O)CN2C(=O)CCSc3ccccc32)c1 -0.183%
COc1cc(OC)c(NC(=O)C2=C(C)C(=O)OC23CCCCCC3)cc1Cl -8.11%
Cc1ccn2c(Nc3ccc(C(C)C)cc3)c(-c3cccs3)nc2c1 -17.9%
COc1ccc(C2C=C(c3cccc(OC)c3)Nc3c(C(=O)Nc4ccccc4)cnn32)cc1 (stereo unspecified) -10.1%
CCn1c2c(c(=O)n3ncc(C(=O)Nc4cc(Cl)ccc4C)c13)CN(Cc1ccc(OC)cc1)CC2 -14.7%
O=C(CSc1nnc(-c2cccc(Cl)c2)o1)N1CCc2ccccc21 -16.2%
O=C(NCCc1ccc(Cl)cc1)C1CCN(c2ncnc3c2nc2n3CCCCC2)CC1 19.5%
COc1ccccc1-c1nnc(SCC(=O)Nc2ccccc2F)o1 -0.968%
Cc1ccc(Cl)cc1NC(=O)CCC(=O)N1CC(C)Sc2ccccc21 (stereo unspecified) -4.03%
CCC1CN(C(=O)N2CCC(C(=O)N3CCN(c4cccc(C)c4C)CC3)CC2)c2ccccc2O1 (stereo unspecified) -9.06%
CC(=O)N1c2ccc(S(=O)(=O)NCC3CCC(C(=O)Nc4ccc(C)cc4)CC3)cc2CC1C (stereo unspecified) -0.348%
CN(Cc1ccco1)C(=O)c1ccc2c(c1)N(Cc1ccccc1F)C(=O)c1ccccc1S2 -3.5%
Cc1ccc(-n2c(=O)c3c4c(sc3n(CC(=O)c3ccc(Cl)cc3)c2=O)CCC4)cc1C -16.1%
COc1ccc2c(c1)c1c(c(=O)n(-c3ccc(F)c(Cl)c3)c(=O)n1CC(=O)N1CCCC1)n2C 2.73%
Cc1c2cnn(-c3ccccc3)c(=O)c2c(C)n1CC(=O)NCCc1ccc(Cl)cc1 -15%
CCOc1ccc(NC(=O)c2cc(S(=O)(=O)N3CCCCCC3)cn2C)cc1 -16.5%
COC(=O)c1cc2sc(C)cc2n1CC(=O)Nc1ccc(C)c(C)c1 -40%
CCc1ccc(NC(=O)CN2CCCN(Cc3cccc(Cl)c3)S2(=O)=O)cc1 -1.97%
COc1cc(CNC(=O)c2ccc3c(c2)N(C)C(=O)C2CCCCN32)cc(OC)c1OC (stereo unspecified) -8.19%
CC(=O)N1CCc2c(sc3c2c(=O)n(-c2ccccc2)c(=O)n3CC(=O)Nc2ccccc2)C1 -6.88%
Cc1nn(CC(=O)NCc2ccco2)c(=O)c2cc3ccccc3n12 -8.21%
CCc1ccccc1N(C)C(=O)c1cn(CC(C)C)c(=O)c2cc(OC)c(OC)cc12 -8.62%
CCOc1ccccc1-n1ccnc(NCc2ccc(F)cc2)c1=O -2.28%
Cc1cccc(NC(=O)Nc2nnc(N(C)C3CCCCC3)s2)c1C -14.2%
COc1ccc(-c2nn(CC(=O)NC3CCCC3)c3c2cnc2ccc(F)cc23)cc1 -18.7%
O=C(CCC(=O)N1Cc2ccccc2Oc2ncccc21)Nc1ccc(Cl)cc1 -25.7%
COC(=O)c1ccc(Cl)cc1NC(=O)N1CC=C(c2c[nH]c3ccccc23)CC1 -4.97%
O=C(Cn1ncc2c(=O)oc3ccccc3c21)Nc1cc(F)ccc1F -0.0553%
COc1ccc(N2CCN(C(=O)c3cc4c(-c5ccccc5F)nn(C)c4s3)CC2)cc1 -1.05%
COc1ccc(OC)c(NC2=C(c3ccccc3)C(=O)c3ccccc32)c1 -20.7%
CC1CCN(S(=O)(=O)c2ccc3c(c2)N(CC(=O)NCc2ccccc2)C(=O)CO3)CC1 9.68%
COc1ccc2c(CNCC(C)c3ccccc3)c(C(=O)O)n(Cc3ccc(F)cc3Cl)c2c1 (stereo unspecified) 13.9%
O=C1CS(=O)(=O)C2(C(=O)N(Cc3cccc(F)c3)c3ccccc32)N1c1ccccc1 (stereo unspecified) -25.1%
COc1ccc(/C=C(\C#N)c2nc(-c3cc(Cl)ccc3OC)cs2)cc1 5.25%
Oc1ccccc1Nc1nc(-c2ccccc2)c2cc(Cl)ccc2n1 -10.7%
O=C(CSc1nc2nccnc2c(=O)n1CCc1c[nH]c2ccccc12)Nc1ccccc1F -11.3%
CCN(CC)c1nc(-c2ccc(C(C)(C)C)cc2)nc2ccccc12 7.4%
Cc1cccc(OCCCC(=O)Nc2sc3c(c2C(N)=O)CCC(C)C3)c1 (stereo unspecified) -8.3%
CCOc1ccc(NC(=O)c2ccc(NC(=O)CCS(=O)(=O)c3cccs3)cc2)cc1 0.451%
CCOc1ccc(CCNC(=O)CCc2c(C)nc3c(c(C)nn3-c3ccccc3)c2C)cc1OCC -21.1%
COc1cc(OC)c(NC(=O)c2c(C)oc3ncn(C)c(=O)c23)cc1Cl 1.52%
CCn1cc(C(=O)N2CCN(c3cccc(Cl)c3)CC2)c(=O)c2cc(S(=O)(=O)N3CCOCC3)ccc21 -4.51%
C[C@]12CCC(=O)C=C1CC[C@H]1[C@@H]3CC[C@](O)(C(=O)CO)[C@@]3(C)C[C@H](O)[C@@]12F -11.7%
Cc1ccc(Cc2nc3ccccc3nc2SCC(=O)N2CCc3ccccc32)cc1 -1.23%
Cc1ccc(C2CC(=O)N(Cc3ccccc3F)c3c2c(C)nn3-c2nc(C)cc(C)n2)cc1 (stereo unspecified) -20%
Cc1c(NC(=O)c2cc([N+](=O)[O-])ccc2N2CCOCC2)cccc1-c1nc2ccccc2o1 -10.3%
Cc1ccc(NC(=O)c2nc(S(C)(=O)=O)ncc2N(Cc2ccccc2)Cc2ccco2)c(C)c1 -8.1%
CN(C)CCNC(=O)C1CCN(c2nc3ccccc3[nH]2)CC1 -7.3%
COc1ccc(NC(=O)Nc2nnc(N3CCCCCC3)s2)cc1 -10.5%
O=C(CSc1ccc(-c2ccccn2)nn1)Nc1ccc(F)c(F)c1 -12.3%
Cc1ccc(CNC(=O)Cn2c3ncccc3c(=O)n2-c2ccccc2)cc1 -4.71%
COc1ccc(NC(=O)c2nnn(Cc3ccccc3C)c2N)c(OC)c1 -12%
CNC[C@H](O)c1cccc(O)c1 -8.84%
Cc1nn(-c2ccc(F)cc2)c(-n2cccc2)c1C(=O)N1CCN(c2ccc(F)cc2)CC1 -38.7%
Cc1ccc(C(=O)Nc2c(-c3ccccc3)nc3ccccn23)cc1C -1.28%
Cc1cccc(-c2nc(SCc3ccc(Br)cc3)n3[nH]c(=O)cc3n2)c1 -21%
Cn1nc(C(=O)Nc2cc(F)ccc2F)c2c1-c1ccccc1SC2 -1.04%
CC1CCCCN1c1csc2ccc(F)cc2c1=O (stereo unspecified) -6.78%
CCOC(=O)c1cnn(-c2ccc(OC)cc2)c1C1CCN(C(=O)OC(C)(C)C)CC1 -17.5%
